These results are taken from ChEMBL document CHEMBL4888484, “Replenishing the malaria drug discovery pipeline: Screening and hit evaluation of the MMV Hit Generation Library 1 (HGL1) against asexual blood stage Plasmodium falciparum ,using a nano luciferase reporter read-out” (2022).

Screen size: about 150,000 compounds; about 540 (0.36%) showed an effect of 50% or more. The list shows a part of the results.

This assay concerns Plasmodium falciparum. The assay is described as follows: Primary screen in NF54 nanoGlo assay, in single point, at 2uM, 72h; a lower Z score goes with more inhibition. The assay is classed as functional, Erythrocyte. Particulars: timepoint 72 hour.
In general, % Inhibition refers to the drop in the measured response relative to a control, in per cent. Consider `CC(=O)Nc1ccc(S(=O)(=O)Nc2noc3ccccc23)cc1`, for which the “% Inhibition” value is reported as -16% and the Z score was 1.83.

Turning to `CCOc1ccc(NC(=O)CC2CCN(S(=O)(=O)c3ccc4c(c3)CCN4C(C)=O)CC2)cc1`, the “% Inhibition” value is -11% and the Z score is 1.04.

In the case of `COc1ccc(Cn2cc([C@H](CC(N)=O)c3cc(C)ccc3F)c3ccccc32)cc1`, the “% Inhibition” value is -7% and the Z score was 0.71.

With `Cn1nc(CN(Cc2ccco2)C(=O)C(C)(C)Oc2ccc(Cl)cc2)cc1C1CC1`, the “% Inhibition” value is given as -14% and the Z score came to 2.73.

Regarding `OC[C@@H](O)CN(CCN1CCOCC1)CCC(F)(F)F`, the “% Inhibition” value is given as -7% and the Z score was determined as 0.85.

Take `Cc1ccc(Cl)cc1NC(=O)[C@H](C)OC(=O)CCC(=O)Nc1nnc(C(C)C)s1`: the “% Inhibition” value is listed as -2% and the Z score came out at 0.28.

Regarding `C[C@H]1COc2ccc(C(=O)NCc3ncccc3F)cc21`, the “% Inhibition” value was 1% and the Z score was -0.18.

With `CC(C)[C@@H](CO)NC(=O)c1sncc1Br`, the “% Inhibition” value is recorded as 3% and the Z score is -0.54.

As to `O=C(c1cccc(C(=O)N2CCN(C(c3ccccc3)c3ccccc3)CC2)c1)N1CCN(C(c2ccccc2)c2ccccc2)CC1`, the “% Inhibition” value is recorded as 54% and the Z score was -11.5.

Take `c1ccn2cc(CN3CCC(n4ccnc4)CC3)nc2c1`: the “% Inhibition” value is -2% and the Z score is 0.24.

With `COC(=O)c1cnc2c(c1)n(Cc1cn(C)nc1C)c(=O)n2C1CCCCC1`, the “% Inhibition” value was -3% and the Z score was determined as 0.44.

As for `O=C(c1nc2ccccn2c1CN1CCC([C@H](O)c2cccs2)CC1)N1CCCC1`, the “% Inhibition” value is listed as -8% and the Z score amounted to 1.17.

`Cc1csc(N2CCC(NC(C)CC(O)c3ccccc3)CC2)n1` (stereo not given): the “% Inhibition” value is given as -6% and the Z score stood at 0.81.

Consider `CCc1csc(CNC(=O)c2ccc(N3Cc4cnn(CCO)c4C3)nc2)n1`, for which the “% Inhibition” value is recorded as -10% and the Z score turned out to be 1.55.

As for `C#CCOC[C@@H](O)CN(CCOC)Cc1cc(C)ccc1C`, the “% Inhibition” value is listed as -12% and the Z score stood at 1.85.

In the case of `COc1cc(OC)cc(C2=NC3(CCCC3)NC2=O)c1`, the “% Inhibition” value was found to be 0% and the Z score is -0.05.

As to `O=C(Cn1cnnn1)Nc1ccc(N2CCOCC2)cc1`, the “% Inhibition” value is on record as -13% and the Z score amounted to 1.79.

On to `Cc1nc(OCC(=O)NCc2cccnc2)c2c(-c3cccc(F)c3)noc2n1`, for which the “% Inhibition” value was 6% and the Z score is -0.89.

`COC(=O)c1ccccc1N(C)C(=O)COC(=O)[C@@](C)(O)CN1Cc2ccccc2C1=O`: the “% Inhibition” value is given as -11% and the Z score amounted to 1.54.

As to `c1ccc(-c2noc(CCN3CCOC[C@H]3c3nc[nH]n3)n2)cc1`, the “% Inhibition” value is given as -3% and the Z score is recorded as 0.58.

For `CC(C)[C@@H]1CN(C(=O)c2cnccn2)CCCN1CC1CC1`, the “% Inhibition” value amounted to 0% and the Z score was found to be 0.04.

Turning to `CC1CC(CNC(=O)c2cc(-c3cccnc3)nn2C)C1` (stereo not given), the “% Inhibition” value is on record as -5% and the Z score came out at 0.95.

In the case of `Cc1ccc2cccc(-n3ccnc3-c3cn(C4CCNCC4)nn3)c2n1`, the “% Inhibition” value is on record as -8% and the Z score came to 1.07.

Turning to `C[C@]1(c2ccccc2)CCCN(C(=O)c2cn(CCN3CCNCC3)nn2)C1`, the “% Inhibition” value stood at 6% and the Z score is -1.18.

For the molecule `Cc1nc2n(n1)CCCC2NC(C)C1CCCN1C(=O)OC(C)(C)C` (stereo not given), the “% Inhibition” value is given as -4% and the Z score came to 0.46.

Regarding `CCNC(=O)[C@H](C)NS(=O)(=O)C1CN(C(=O)OC(C)(C)C)C1`, the “% Inhibition” value worked out at 3% and the Z score is on record as -0.39.

As to `COc1ccc([C@@]2(C)NC(=O)N(CC(=O)N3CC(=O)Nc4ccccc43)C2=O)cc1OC`, the “% Inhibition” value was found to be 43% and the Z score is -5.54.

Regarding `CCN1CC(C)C(NS(=O)(=O)c2ccc3c(c2)OCCO3)C1` (stereo not given), the “% Inhibition” value is given as -8% and the Z score was found to be 1.07.

For the molecule `O=C1O[C@H](C(=O)Nc2nc3ccc(F)cc3s2)Cc2ccccc21`, the “% Inhibition” value is reported as 4% and the Z score was -0.45.

For `O=C1C2C3CCC(C3)C2C(=O)N1c1ccc(Oc2ccc(Cl)cc2Cl)cc1` (stereo not given), the “% Inhibition” value is -8% and the Z score is given as 0.99.

Take `CC(C)N1C[C@@H](C(=O)NCc2cccc(-c3ccccc3)c2)CCC1=O`: the “% Inhibition” value is listed as -2% and the Z score amounted to 0.43.

As for `CCc1noc(C)c1C(=O)N1CCOC[C@H]1c1ncn(CC(F)(F)F)n1`, the “% Inhibition” value was determined as 3% and the Z score is -0.53.

`O=S(=O)(Cc1ccccc1)N[C@H]1CO[C@H]2[C@@H]1OC[C@@H]2Nc1nccc(-c2ccco2)n1`: the “% Inhibition” value is -4% and the Z score was 0.73.

Take `O=C1[C@@H]2C[C@H](O)CCN2C(=O)CN1Cc1ccccc1C(F)(F)F`: the “% Inhibition” value is given as -14% and the Z score is on record as 1.43.

In the case of `CCN1CCC[C@@H]1Cn1cc(CCc2ccccc2)nn1`, the “% Inhibition” value is given as 12% and the Z score is -1.6.

`CC(C)(C)n1ncnc1CN1CCC[C@H](CN2CCOCC2)C1`: the “% Inhibition” value is on record as -8% and the Z score is reported as 1.22.

`NC(=O)c1ccc(O[C@H]2COCC[C@@H]2NC(=O)c2c(O)cccc2F)cc1`: the “% Inhibition” value is on record as -2% and the Z score worked out at 0.28.

For `CC(C)n1cc(NC(=O)N2CCC3CCCCC32)cn1` (stereo not given), the “% Inhibition” value is reported as -6% and the Z score worked out at 0.82.

`O=C(O)c1cc2nc(-c3ccccc3)ccc2[nH]1`: the “% Inhibition” value is 16% and the Z score is -1.83.

Turning to `O=C(Nc1cccc(C(F)(F)F)c1)N1CCc2c(c3ccccc3n2CC2CC2)C1`, the “% Inhibition” value is given as -1% and the Z score is 0.17.
